# Test results published in the supplement of paper PMC8728848.
# Some of the results follow.
# B1: AAL (Agrocybe aegerita), Q6WY08 (protein)
# chain: MQGVNIYNISAGTSVDLAAPVTTGDIVTFFSSALNLNAGAGNPNNTTLNLFAENGAYLLHIAFRLQENVIIFNSRQPDGPWLVEQRVSDVANQFAGIDGKAMVTVFDHGDKYQVVINEKTVIQYTKQISGLTLSLSYNATEETSIFSTVVEAVTYTGLALEHHHHHH
# Columns and labels:
# Assay in all cases: glycan array binding signal (z-score within array); higher = stronger binding
# Conditions in all cases: glycan notation: IUPAC condensed, linker removed
# [1] = target: Fuc(a1-2)Gal(b1-4)GlcNAc(b1-2)[Fuc(a1-2)Gal(b1-4)GlcNAc(b1-4)]Man(a1-3)[Fuc(a1-2)Gal(b1-4)GlcNAc(b1-2)Man(a1-6)]Man(b1-4)GlcNAc(b1-4)GlcNAc
# How it was run: (§1)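 Glycan array binding is given as a within-array Z-score, which can be read as non-binding when negative. The arrays, 3228 of them, came from the Consortium for Functional Glycomics database and were retained only where the protein sequence was available. Z-scores were averaged across arrays of the same protein sequence at different concentrations or buffers and across linkers.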
# [2] = target: Fuc(a1-2)Gal(b1-4)GlcNAc(b1-3)Gal(b1-4)GlcNAc
# How it was run: as §1
# [3] = target: Fuc(a1-2)Gal(b1-4)GlcNAc(b1-3)Gal(b1-4)GlcNAc(b1-2)Man(a1-3)[Fuc(a1-2)Gal(b1-4)GlcNAc(b1-3)Gal(b1-4)GlcNAc(b1-2)Man(a1-6)]Man(b1-4)GlcNAc(b1-4)GlcNAc
# How it was run: as §1
# [4] = target: Fuc(a1-2)Gal(b1-4)GlcNAc(b1-3)Gal(b1-4)GlcNAc(b1-3)Gal(b1-4)GlcNAc
# How it was run: as §1
# [5] = target: Fuc(a1-2)Gal(b1-4)GlcNAc(b1-3)GalNAc
# How it was run: as §1
# [6] = target: Fuc(a1-2)Gal(b1-4)GlcNAc(b1-3)[Fuc(a1-2)Gal(b1-4)GlcNAc(b1-6)]GalNAc
# How it was run: as §1
# [7] = target: Fuc(a1-2)Gal(b1-4)GlcNAc(b1-3)[Fuc(a1-3)[Gal(b1-4)]GlcNAc(b1-6)]Gal(b1-4)Glc
# How it was run: as §1
# [8] = target: Fuc(a1-2)Gal(b1-4)GlcNAc(b1-6)GalNAc
# How it was run: as §1
# [9] = target: Fuc(a1-2)Gal(b1-4)GlcNAc6S
# How it was run: as §1
# [10] = target: Fuc(a1-2)Gal(b1-4)[Fuc(a1-3)]GlcNAc
# How it was run: as §1
# [11] = target: Fuc(a1-2)Gal(b1-4)[Fuc(a1-3)]GlcNAc(b1-2)Man(a1-3)[Fuc(a1-2)Gal(b1-4)[Fuc(a1-3)]GlcNAc(b1-2)Man(a1-6)]Man(b1-4)GlcNAc(b1-4)GlcNAc
# How it was run: as §1
# [12] = target: Fuc(a1-2)Gal(b1-4)[Fuc(a1-3)]GlcNAc(b1-2)Man(a1-3)[Fuc(a1-2)Gal(b1-4)[Fuc(a1-3)]GlcNAc(b1-2)Man(a1-6)]Man(b1-4)GlcNAc(b1-4)[Fuc(a1-6)]GlcNAc
# How it was run: as §1
# [13] = target: Fuc(a1-2)Gal(b1-4)[Fuc(a1-3)]GlcNAc(b1-2)[Fuc(a1-2)Gal(b1-4)[Fuc(a1-3)]GlcNAc(b1-4)]Man(a1-3)[Fuc(a1-2)Gal(b1-4)[Fuc(a1-3)]GlcNAc(b1-2)Man(a1-6)]Man(b1-4)GlcNAc(b1-4)GlcNAc
# How it was run: as §1
# [14] = target: Fuc(a1-2)Gal(b1-4)[Fuc(a1-3)]GlcNAc(b1-3)Gal(b1-4)[Fuc(a1-3)]GlcNAc
# How it was run: as §1
# [15] = target: Fuc(a1-2)Gal(b1-4)[Fuc(a1-3)]GlcNAc(b1-3)Gal(b1-4)[Fuc(a1-3)]GlcNAc(b1-3)Gal(b1-4)[Fuc(a1-3)]GlcNAc
# How it was run: as §1
# [16] = target: Fuc(a1-2)Gal(b1-4)[Fuc(a1-3)]GlcNAc(b1-3)GalNAc
# How it was run: as §1
# [17] = target: Fuc(a1-2)Gal(b1-4)[Fuc(a1-3)]GlcNAc(b1-3)[Neu5Ac(a2-6)Gal(b1-4)GlcNAc(b1-6)]Gal(b1-4)Glc
# How it was run: as §1
# [18] = target: Fuc(a1-2)Gal3S(b1-4)GlcNAc
# How it was run: as §1
# [19] = target: Fuc(a1-2)Gal6S(b1-3)GlcNAc
# How it was run: as §1
# [20] = target: Fuc(a1-2)Gal6S(b1-3)GlcNAc6S
# How it was run: as §1
# Fuc(a1-2)Gal6S(b1-4)Glc = target: Fuc(a1-2)Gal6S(b1-4)Glc
# How it was run: as §1
# [21] = target: Fuc(a1-2)Gal6S(b1-4)Glc6S
# How it was run: as §1
# [22] = target: Fuc(a1-2)Gal6S(b1-4)GlcNAc
# How it was run: as §1
# Fuc(a1-2)[Gal(a1-3)]Gal = target: Fuc(a1-2)[Gal(a1-3)]Gal
# How it was run: as §1
# [23] = target: Fuc(a1-2)[Gal(a1-3)]Gal(b1-3)GalNAc
# How it was run: as §1
# [24] = target: Fuc(a1-2)[Gal(a1-3)]Gal(b1-3)GalNAc(b1-3)Gal(a1-4)Gal(b1-4)Glc
# How it was run: as §1
# [25] = target: Fuc(a1-2)[Gal(a1-3)]Gal(b1-3)GlcNAc
# How it was run: as §1
# [26] = target: Fuc(a1-2)[Gal(a1-3)]Gal(b1-3)GlcNAc(b1-2)Man(a1-3)[Fuc(a1-2)[Gal(a1-3)]Gal(b1-3)GlcNAc(b1-2)Man(a1-6)]Man(b1-4)GlcNAc(b1-4)GlcNAc
# How it was run: as §1
# [27] = target: Fuc(a1-2)[Gal(a1-3)]Gal(b1-3)GlcNAc(b1-2)Man(a1-3)[Fuc(a1-2)[Gal(a1-3)]Gal(b1-3)GlcNAc(b1-2)Man(a1-6)]Man(b1-4)GlcNAc(b1-4)[Fuc(a1-6)]GlcNAc
# How it was run: as §1
# [28] = target: Fuc(a1-2)[Gal(a1-3)]Gal(b1-3)GlcNAc(b1-3)GalNAc
# How it was run: as §1
binder,measurement,setting,value
B1,glycan array binding signal (z-score),[1],-0.119
same,glycan array binding signal (z-score),[2],-0.138
same,glycan array binding signal (z-score),[3],-0.083
same,glycan array binding signal (z-score),[4],-0.159
same,glycan array binding signal (z-score),[5],-0.145
same,glycan array binding signal (z-score),[6],-0.079
same,glycan array binding signal (z-score),[7],-0.149
same,glycan array binding signal (z-score),[8],-0.116
same,glycan array binding signal (z-score),[9],-0.134
same,glycan array binding signal (z-score),[10],-0.147
same,glycan array binding signal (z-score),[11],-0.15
same,glycan array binding signal (z-score),[12],-0.118
same,glycan array binding signal (z-score),[13],-0.101
same,glycan array binding signal (z-score),[14],-0.152
same,glycan array binding signal (z-score),[15],-0.144
same,glycan array binding signal (z-score),[16],-0.139
same,glycan array binding signal (z-score),[17],-0.107
same,glycan array binding signal (z-score),[18],-0.147
same,glycan array binding signal (z-score),[19],-0.124
same,glycan array binding signal (z-score),[20],-0.107
same,glycan array binding signal (z-score),Fuc(a1-2)Gal6S(b1-4)Glc,-0.153
same,glycan array binding signal (z-score),[21],-0.143
same,glycan array binding signal (z-score),[22],-0.157
same,glycan array binding signal (z-score),Fuc(a1-2)[Gal(a1-3)]Gal,-0.145
same,glycan array binding signal (z-score),[23],-0.029
same,glycan array binding signal (z-score),[24],-0.097
same,glycan array binding signal (z-score),[25],-0.126
same,glycan array binding signal (z-score),[26],-0.158
same,glycan array binding signal (z-score),[27],-0.119
same,glycan array binding signal (z-score),[28],-0.119
